The supplement of paper PMC10600219
Counter-ions that a name gives are not always drawn. The full ranking holds about 2,800 compounds; the median of “cell viability relative to vehicle” is about 1.1, and the lowest 2% start at about 0.19. The list shows a part of the results.

Test system: NCI-H2228 parental
Test: cell viability relative to vehicle (fraction of vehicle); NCI-H2228 is an ALK-positive lung cancer line and DTP means drug-tolerant persister; higher = less growth inhibition
Conditions: 100 nM; treatment time 6 days
Method in brief: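 Drug-tolerant persister NCI-H2228 cells, produced by 13 days in 1000 nM of a targeted drug, and their parental counterparts were seeded into 384-well plates and, the following day, given the 3114-agent TargetMol anti-cancer compound library at 100 nM or DMSO vehicle. After 6 days, the CellTiter-Glo 3D Cell Viability Assay was used to read ATP. Each entry reports viability compared with vehicle-treated cells.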

SMILES | cell viability
CCCNc1nc(NCCC)nc(N(C)OC)n1 | 1.08
CC1=C(/C=C/C(C)=C/C=C/C(C)=C/C(=O)Nc2ccc(O)cc2)C(C)(C)CCC1=O [4-Oxofenretinide] | 1.11
c1cc(-c2cnn3cc(-c4ccc(OCCN5CCCCC5)cc4)cnc23)ccn1 [Dorsomorphin] | 0.999
c1cc(-c2cnn3cc(-c4ccc(OCCN5CCCCC5)cc4)cnc23)ccn1 [Dorsomorphin dihydrochloride] | 1.08
O=C1[C@H](CC[C@H](O)c2ccc(F)cc2)[C@@H](c2ccc(O)cc2)N1c1ccc(F)cc1 [Ezetimibe] | 1.09
CC(O)(P(=O)(O)O)P(=O)(O)O [Sodium etidronate] | 1.06
CC(O)(P(=O)(O)O)P(=O)(O)O [Etidronate] | 1.13
CC(C)c1ccc(NC(=O)c2cccs2)c(-c2nc3ccccc3[nH]c2=O)c1 | 1.19
O=C(O)CCCC[C@@H]1CCSS1 (racemic) [Thioctic acid] | 0.989
Nc1cc(F)ccc1NC(=O)/C=C/c1cnn(C/C=C/c2ccccc2)c1 | 0.981
O=C(Nc1nccs1)C(c1cc(F)ccc1O)N1Cc2ccccc2C1=O (configuration not stated) | 0.913
N[C@@H](Cc1ccc(O)cc1)C(=O)O [Tyrosine] | 1.21
CN(Cc1cnc2nc(N)nc(N)c2n1)c1ccc(C(=O)N[C@@H](CCC(=O)O)C(=O)O)cc1 [Methotrexate] | 0.375
CCCCCCCCCCCCCCCCOP(=O)([O-])OCC[N+](C)(C)C [Miltefosine] | 1.14
COc1cc(C(C)=O)ccc1O [Acetovanillone] | 1.19
CC/C(=C(/c1ccc(/C=C/C(=O)O)cc1)c1ccc2[nH]ncc2c1)c1ccc(F)cc1Cl | 1.06
CC(=O)OCC1=CO[C@@H](OC(=O)CC(C)C)[C@H]2C1=C[C@H](OC(=O)CC(C)C)[C@]21CO1 [Valepotriate] | 1.02
C=CC(C)(C)c1cc(/C=C/C(=O)c2ccc(O)cc2)c(OC)cc1O [Licochalcone A] | 1.1
C[C@]12CC[C@@H]3c4ccc(OS(=O)(=O)O)cc4CC[C@H]3[C@@H]1CCC2=O [Estropipate] | 1.11
COC(=O)c1ccc([C@H]2c3[nH]c4ccccc4c3C[C@H](C(=O)OC)N2C(=O)CCl)cc1 | 0.214
Cc1ccc(S(=O)(=O)NC(=O)NN2CCCCCC2)cc1 [Tolazamide] | 0.892

SMILES | cell viability
CN1CCN(c2c(F)cc3c(=O)c(C(=O)O)cn4c3c2OCN4C)CC1 [Marbofloxacin] | 1.16
CCOC(=O)c1ccc(N)cc1 [Benzocaine] | 0.878
CC(CCc1ccccn1)(CCc1ccccn1)C(=O)c1ccccc1 [JAK2 Inhibitor V] | 1.08
C[C@H]1[C@H](C)CC[C@]2(C(=O)O)CC[C@]3(C)C(=CC[C@@H]4[C@@]5(C)C[C@@H](O)[C@H](O)[C@@](C)(CO)[C@@H]5CC[C@]43C)[C@H]12 [Asiatic acid] | 0.941
CCN(CC)CCOC(=O)C(c1ccccc1)c1ccccc1 [Adiphenine hydrochloride] | 1.17
OC(CCCN1CCCCC1)(c1ccccc1)c1ccccc1 [Diphenidol hydrochloride] | 1.17
CCCCCCCCCCCCc1ccc(S(=O)(=O)Nc2nncs2)cc1 | 1.01
Oc1c(F)cc(-c2cnccc2-c2ccc(N3CCOCC3)cc2)cc1F | 0.99
CCCCCCCc1ccc(CCc2cccc(O)c2C(=O)O)cc1 | 1.06
O=c1cc(-c2ccc(O)cc2)oc2c([C@@H]3O[C@H](CO)[C@@H](O)[C@H](O)[C@H]3O)c(O)cc(O)c12 [Vitexin] | 1.06
CCN(c1cc(C#CCN2CCOCC2)cc(C(=O)NCc2c(C)cc(C)[nH]c2=O)c1C)[C@H]1CC[C@H](N(C)CCOC)CC1 | 1.2
Cc1noc(C)c1-c1ccc(-c2cc(C(N)=O)c(NC(N)=O)s2)c(O[C@H]2CCNC2)c1 | 1.05
Cc1ccc([N+](=O)[O-])cc1S(=O)(=O)N(C)/N=C/c1cnc2ccc(Br)cn12 [PIK-75  hydrochloride] | 0.153
Cc1ccc([N+](=O)[O-])cc1S(=O)(=O)N(C)/N=C/c1cnc2ccc(Br)cn12 | 0.165
Cc1cc(C)cc(Oc2ccc(CNC(=O)[C@H](C)N)cc2C)c1 | 0.971
CC(=O)CC/C=C(\C)CC/C=C(\C)CC/C=C(\C)CCC=C(C)C [Teprenone] | 1.01
COc1ccc(-c2ccc3c(N4CCOCC4)nc(N4C[C@@H](C)O[C@@H](C)C4)nc3n2)cc1CO | 0.82
CC(C)(C)S(=O)(=O)c1ccc2nccc(Nc3n[nH]c4ccc(F)cc34)c2c1 | 1.01
COc1cc(OC)c(/C=C/S(=O)(=O)Cc2ccc(OC)c(NCC(=O)O)c2)c(OC)c1 | 0.416
CC/C(=C(/CC)c1ccc(O)cc1)c1ccc(O)cc1 [Diethylstilbestrol] | 0.975
CC1=C(/C=C/C(C)=C/C=C/C(C)=C\C(=O)O)C(C)(C)CCC1 [Isotretinoin] | 0.766

SMILES | cell viability
CSc1ccc2c(c1)N(CCC1CCCCN1C)c1ccccc1S2 (configuration not stated) [Thioridazine hydrochloride] | 1.14
Cc1cc(C=C2SC(=O)N(c3ccccc3)C2=O)c(C)n1-c1cccnc1 | 0.982
Cc1cc(-c2ccccc2)nnc1NCCN1CCOCC1 [Minaprine dihydrochloride] | 1.14
NC(N)=Nc1nc(CSCC/C(N)=N/S(N)(=O)=O)cs1 [Famotidine] | 1.08
COc1cc(N2CCC(N3CCN(C)CC3)CC2)ccc1Nc1ncnc(Nc2ccccc2S(=O)(=O)C(C)C)n1 | 0.64
CCN(CCO)CCCC(C)Nc1ccnc2cc(Cl)ccc12 (configuration not stated) [Hydroxychloroquine sulfate] | 1.21
Cc1nc(Nc2ncc(C(=O)Nc3c(C)cccc3Cl)s2)cc(N2CCN(CCO)CC2)n1 [Dasatinib monohydrate] | 0.77
Cc1nc(Nc2ncc(C(=O)Nc3c(C)cccc3Cl)s2)cc(N2CCN(CCO)CC2)n1 [Dasatinib] | 0.872
CCN1CCN(Cc2ccc(-c3cc4c(N[C@H](C)c5ccccc5)ncnc4[nH]3)cc2)CC1 | 1.04
Cn1cc(-c2cc(Oc3cc(F)c(NC(=O)C4(C(=O)Nc5ccccc5)CC4)cc3F)ccn2)cn1 | 1.09
CC(C)c1ccc2c(c1)c(SC(C)(C)C)c(CC(C)(C)C(=O)O)n2Cc1ccc(Cl)cc1 | 0.992
COc1cc(O)c2c(=O)cc(-c3ccc(O)cc3)oc2c1 [Genkwanin] | 1.06
Cc1nc(-c2ccc(OCC(C)C)c(C#N)c2)sc1C(=O)O [Febuxostat] | 1.15
CC(=O)[C@H]1CC[C@H]2[C@@H]3CC=C4C[C@@H](O)CC[C@]4(C)[C@H]3CC[C@]12C [Pregnenolone] | 1.24
CN(C)c1ccc(C(=C2C=CC(=[N+](C)C)C=C2)c2ccc(N(C)C)cc2)cc1 [Crystal Violet] | 0.714
CC(C(=O)O)c1ccc2c(c1)CC(=O)c1ccccc1S2 (configuration not stated) [Zaltoprofen] | 1.11
C=C1/C(=C\C=C2/CCC[C@]3(C)[C@@H]([C@H](C)/C=C/[C@H](C)C(C)C)CC[C@@H]23)C[C@@H](O)C[C@@H]1O [Doxercalciferol] | 0.887
Cc1ccc2c(=O)c3cccc(CC(=O)O)c3oc2c1C | 1.19
CC(C)(C)c1ccc(C(O)CCCN2CCC(C(O)(c3ccccc3)c3ccccc3)CC2)cc1 (configuration not stated) [Terfenadine] | 1.06
CC(COc1ccccc1)NC(C)C(O)c1ccc(O)cc1 (configuration not stated) [Isoxsuprine hydrochloride] | 0.983
O=C1Nc2ccccc2/C1=C/c1ccc(F)cc1 | 1.05

SMILES | cell viability
CCOC(=O)c1[nH]c2cc(Cl)ccc2c1C(C(=O)NC(C)(C)C)N(C=O)Cc1ccc(Cl)cc1 (configuration not stated) | 1.02
COC1CCN(C(=O)c2cc(Cc3n[nH]c(=O)c4ccccc34)ccc2F)CC1 | 0.928
COc1ccc(C[C@@H]2c3cc(Oc4cc(C[C@@H]5c6cc(OC)c(OC)cc6CCN5C)ccc4O)c(OC)cc3CCN2C)cc1 [Neferine] | 1.18
C=CC(=O)Nc1ccc(CN2C(=O)N(c3cc(OC)cc(OC)c3)Cc3cnc(Nc4ccc(N5CCN(C)CC5)cc4)nc32)cc1 | 0.858
Cn1cc(-c2ccncc2)c(-c2ccc(OCc3ccc4ccccc4n3)cc2)n1 | 1.1
O=C(O)[C@H]1O[C@@H](Oc2cc3oc(-c4ccccc4)cc(=O)c3c(O)c2O)[C@H](O)[C@@H](O)[C@@H]1O [Baicalin] | 1.02
Nc1ccc(S(=O)(=O)Nc2ccccn2)cc1 [Sulfapyridine] | 1.15
Nc1ccn([C@@H]2O[C@H](CO)[C@@H](O)[C@@H]2O)c(=O)n1 [Cytarabine] | 0.12
Nc1ncnc2c1ncn2C1CCCO1 (configuration not stated) | 1.06
Cc1cc(C)c(S(=O)(=O)n2cc(C)cc2C)c(C)c1 | 1.13
COc1ccnc(C[S+]([O-])c2nc3cc(OC(F)F)ccc3[nH]2)c1OC (configuration not stated) [Pantoprazole sodium] | 1.09
COc1ccnc(C[S+]([O-])c2nc3cc(OC(F)F)ccc3[nH]2)c1OC (configuration not stated) [Pantoprazole Sodium Hydrate] | 1.11
Cc1[nH]c2ccccc2c1CCNCc1ccc(/C=C/C(=O)NO)cc1 [Panobinostat] | 0.094
Cc1nc(-c2cccnc2)sc1C(=O)Nc1ccccc1-c1cn2c(CN3CCOCC3)csc2n1 | 1.21
O=c1ccc2ccccc2o1 [Coumarin] | 1.14
O=C(O)c1c[nH]c2cc(Cl)c(-c3ccc(C4(O)CCC4)cc3)cc12 | 1.09
Nc1ccc(C(=O)Nc2cccc(-c3nc(N4CCOCC4)c4oc5ncccc5c4n3)c2)cn1 | 1.15
CN(C)CCCN1c2ccccc2Sc2ccc(Cl)cc21 [Chlorpromazine hydrochloride] | 1.26
CC(=O)N1CCC2(CC1)c1cc(C#C[C@H]3O[C@H](CO)[C@@H](O)[C@H](O)[C@@H]3O)ccc1-c1ccc(C#C[C@H]3O[C@H](CO)[C@@H](O)[C@H](O)[C@@H]3O)cc12 [Antibiotic-202] | 1.08
